PubChem BioAssay AID686970 (National Center for Advancing Translational Sciences (NCATS), 2013)
Among all 360,000 compounds or so, about 6,000 (1.7%) were called active. Inconclusive means that the source gave no clear call. Such entries were picked first, then a sample of the others. The call rests on the fitted dose curve; in most records, active means well fitted cell-killing curve with a large enough effect; inconclusive means small, poorly fitted or top-dose-only effect, or effect the other way; inactive means flat fitted curve, though single readings scatter. No potency is given beside an inconclusive call; the fits are too rough.
Potency means the concentration at half of the fitted maximal effect; tags describe the fitted curve by direction and shape.

Experiment: qHTS for induction of synthetic lethality in tumor cells producing 2HG: qHTS for the HT-1080-NT fibrosarcoma cell line;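 further: NT is the 2HG producing partner of a matched IDH1 knockdown line; nearly all actives have a fitted effect of over 55% in size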;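 on activity, negative = less viability: 0% = DMSO-treated cells and -100% = media-only wells without cells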
Details: HT-1080-NT fibrosarcoma viability, CellTiter-Glo ATP luminescence, 48 h; activity, negative = less viability: at 46.1 µM (top of the series) unless noted
Method in brief: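 Read-out is CellTiter-Glo luminescence after 10 minutes at room temperature, following 48 hours' compound treatment of HT-1080-NT cells (750 cells/well, RPMI, 5% FBS, 37 degrees C).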
In the case of `Cc1ccc(N(C)S(=O)(=O)c2ccc(-c3cnc(C4CC4)o3)cc2)cc1`, the Potency is reported as inconclusive [cytotoxic, full curve, poor fit].
With `Cc1cc(C)nc(/N=C(\N)Nc2ccc(OCc3ccccc3)cc2)n1` the Potency was active: 18.4 µM.
For `O=c1c2c(n3cnnc3n1-c1ccccc1)-c1ccccc1CC21CCCC1`, the “activity, negative = less viability” value was inactive: -0.012%.
With `COc1ccc(NC(=O)C2Cc3c(-c4ccc5c(c4)OCO5)ccnc3O2)cn1` (stereo unspecified) the Potency was active: 5.8 µM.
With `CN(C)CCCNC(=O)c1cccc(-c2cnc3cccnn23)c1` the Potency was inconclusive [rising, full curve].
With `CC(C)c1cc2cc3ccc(=O)oc3cc2o1` the activity, negative = less viability was inconclusive: 36.8%.
For `COc1ccc(/C=C2\SC(N3CCc4ccccc4C3)=NC2=O)cc1OC`, the Potency was inconclusive [cytotoxic, single point].
In the case of `COc1cccc(C(=O)Nc2nc(-c3ccccc3)c(-c3ccccc3)o2)c1`, the Potency is reported as inconclusive [cytotoxic, single point].
For `c1ccc(-c2ccc(OCCCNC3CCCC3)cc2)cc1`, the Potency was active: 14.6 µM.
In the case of `O=C(OCc1nc2ccc(Cl)cc2n1CCO)c1ccc(O)cc1`, the Potency is reported as inconclusive [cytotoxic, single point].
For `CN(CCC#N)C(=O)COC(=O)c1c2c(nc3ccccc13)/C(=C\c1ccco1)CC2`, the “activity, negative = less viability” value was inactive: -21.1%.
With `O=C(CSc1nnnn1Cc1ccccc1)Nc1ccccc1` the “activity, negative = less viability” value was inactive: -1.98%.
For `CCOC(=O)/C=C1\CN(Cc2cc(OC)c(OC)c(OC)c2)S(=O)(=O)c2ccccc21`, the Potency was inconclusive [cytotoxic, single point].
With `O=C(N/N=C/c1ccccc1)c1cc(-c2ccc3c(c2)OCO3)n[nH]1` the Potency was inconclusive [cytotoxic, partial curve].
For `O=C(COC(=O)c1cc(Br)ccc1O)NC12CC3CC(CC(C3)C1)C2`, the “activity, negative = less viability” value was inactive: 0%.
In the case of `Cc1cccc(N2CCN(C(=O)CCNC(=O)Cn3ccc4ccccc4c3=O)CC2)c1C`, the “activity, negative = less viability” value is reported as inactive: -0.492%.
For `CC(C)CC(N)c1csc(NC(=O)Nc2ccccc2Cc2ccccc2)n1` (stereo unspecified), the Potency was inconclusive [cytotoxic, single point].
In the case of `COc1cc(C2C3=C(COC3=O)Oc3cc4c(cc32)OCO4)ccc1O` (stereo unspecified), the Potency is reported as inconclusive [cytotoxic, full curve].
For `O=S(=O)(c1ccc(Cl)cc1)N1CCN(c2nc(-c3cccs3)nc3ccccc23)CC1`, the Potency was “inactive”.
With `Cc1ccc2nc(N(CCCN(C)C)C(=O)c3ccc(S(=O)(=O)N4CCOCC4)cc3)sc2c1` the “activity, negative = less viability” value was inactive: -14.8%.
For `Cc1ccccc1Nc1cc(C(=O)NCC2CCCO2)c2ccccc2n1` (stereo unspecified), the “activity, negative = less viability” value was inactive: 1.56%.
For `CN1c2ccc(Cl)cc2C(=O)NC1c1ccc([N+](=O)[O-])s1` (stereo unspecified), the Potency was inconclusive [cytotoxic, partial curve].
With `CC(C)(C)[C@@H]1COC(=O)[C@H](Cc2ccc(F)cc2)C/C=C\C[C@@H](CC(=O)N(CCO)Cc2ccccc2)C(=O)N1` the “activity, negative = less viability” value was inactive: -0.895%.
With `O=c1cc(CN2CCOCC2)c2cc(Cl)ccc2o1` the “activity, negative = less viability” value was inactive: 6.13%.
In the case of `O=C1NC(=S)N/C1=C\c1ccccc1OCc1ccc(C(=O)O)cc1`, the Potency is reported as inconclusive [rising, single point].
With `COC(=O)c1cc(S(=O)(=O)Nc2cccc(-c3cnco3)c2)oc1C` the “activity, negative = less viability” value was inactive: 0.0082%.
With `CCc1cc2c(N3CCN(c4nnc(CC)s4)CC3)ncnc2s1` the Potency was inconclusive [cytotoxic, single point].
In the case of `CO/N=C\CC(=O)Nc1ccc(Cl)cc1Cl`, the Potency is reported as inconclusive [cytotoxic, partial curve].
With `COc1ccc(NC(=O)/C(Cl)=C(/Cl)S(=O)Cc2ccccc2Cl)cn1` (stereo unspecified) the Potency was active: 1.3 µM.
With `Cc1ccc(C)c(N2CCN(C3C(=O)Nc4ccccc4-n4nnnc43)CC2)c1` (stereo unspecified) the Potency was inconclusive [cytotoxic, single point].
For `O=C(Nc1ccc(Br)cc1F)C1CCCO1` (stereo unspecified), the Potency was inconclusive [rising, single point].
With `O=C(NCCN1C(=O)S/C(=C\c2ccc(Cl)c([N+](=O)[O-])c2)C1=O)C1=COCCO1` the Potency was active: 14.6 µM.
In the case of `CC1CCCN(C(=O)COC(=O)C2CCN(S(=O)(=O)c3c(Cl)cccc3Cl)CC2)C1` (stereo unspecified), the “activity, negative = less viability” value is reported as inactive: -1.42%.
With `Cc1ccn2c(NC(=O)C(C)(C)Oc3ccc(Cl)cc3)c(-c3cccs3)nc2c1` the Potency was inconclusive [cytotoxic, single point].
With `NC(N)=Nc1nc(-c2ccccc2)c2cc(F)ccc2n1` the Potency was active: 20.6 µM.
For `Cc1c(NC(=O)c2ccc3ncccc3c2)c(=O)n(-c2ccccc2)n1C`, the “activity, negative = less viability” value was inactive: 1.03%.
In the case of `CC(C)CC(=O)NC(=S)Nc1ccc(N2CCN(C(=O)c3cccs3)CC2)cc1`, the Potency is reported as inconclusive [cytotoxic, single point].
In the case of `O=C(COc1ccc(-n2ccnc2)cc1)Nc1cccc(F)c1`, the Potency is reported as inconclusive [cytotoxic, single point].
In the case of `CCSc1nc(N)nc2c1ncn2C1OC(CO)C(O)C1O` (stereo unspecified), the “activity, negative = less viability” value is reported as inactive: -1.22%.
With `Cc1c(C)c2cccnc2c2ncccc12` the Potency was active: 10.3 µM.
With `CCN1/C(=C/c2ccc3cc(C)ccc3[n+]2C)Sc2ccc3sccc3c21` the Potency was active: 16.4 µM.
In the case of `COc1cccc(C(=O)Nc2cccc(-c3nnc(-c4ccccc4)o3)c2)c1`, the “activity, negative = less viability” value is reported as inactive: -1.75%.
With `O=C(Nc1ccc(Cl)c(S(=O)(=O)Nc2ccccc2Cl)c1)c1cccs1` the Potency was inconclusive [cytotoxic, partial curve].
For `O=C(O)COc1ccc(/C=N/n2c(COc3ccccc3)nc3ccccc3c2=O)cc1`, the “activity, negative = less viability” value was inactive: 0.974%.
In the case of `Cc1ccc(N2C(=O)c3n[nH]c(C)c3C2c2ccco2)cc1` (stereo unspecified), the Potency is reported as inconclusive [rising, single point].
With `COc1ccc(NC(=O)c2cc3ccc(O)cc3o/c2=N\O)cc1` the Potency was inconclusive [cytotoxic, partial curve].
For `COc1ccc(NC(=O)CCCC(=O)c2ccccc2)cc1`, the Potency was inconclusive [cytotoxic, single point].
In the case of `CC(C(=O)OCC(=O)N(C)C1(C#N)CCCCC1)N1C(=O)c2ccccc2C1=O` (stereo unspecified), the “activity, negative = less viability” value is reported as inactive: 6.55%.
In the case of `CN(c1ccccc1)S(=O)(=O)c1ccc(NC(=S)Nc2ccccc2)cc1`, the activity, negative = less viability is reported as inconclusive: 30.5%.
In the case of `Cc1ccc(C2=NN=C(NC(=O)CSc3nnc4c5ccccc5n(C)c4n3)SC2)cc1`, the Potency is reported as inconclusive [cytotoxic, partial curve].
In the case of `COc1cccc(-c2nnc(NC(=O)c3ccc(S(=O)(=O)N4CC(C)OC(C)C4)cc3)o2)c1` (stereo unspecified), the Potency is reported as inconclusive [cytotoxic, partial curve].
In the case of `Cc1cc(O)c(C(C)C)cc1N=Cc1ccccc1[N+](=O)[O-]`, the Potency is reported as inconclusive [cytotoxic, single point].
With `CCCCn1nnnc1C(c1ccccc1)N1CCN(C(C)=O)CC1` (stereo unspecified) the “activity, negative = less viability” value was inactive: 20.6%.
With `CCOC(=O)C1=C(c2cccc(Oc3ccccc3)c2)NC(=S)NC1C` (stereo unspecified) the Potency was inconclusive [cytotoxic, single point].
For `O=C(NCc1nc2ccccc2[nH]1)c1ccc(Cl)c(S(=O)(=O)N2CCCC2)c1`, the “activity, negative = less viability” value was inactive: 4.94%.
For `O=S1(=O)C[C@@H](N2CCC[C@@H]2CO)[C@H](COCc2ccccc2)N1`, the “activity, negative = less viability” value was inactive: 17.6%.
In the case of `N#Cc1ccc(Oc2cccc3cccnc23)c([N+](=O)[O-])c1`, the “activity, negative = less viability” value is reported as inactive: 2.22%.
With `C/C(Nc1cccc(F)c1)=C(/C#N)C(N)=O` the Potency was inconclusive [rising, single point].
With `COc1ccc2[nH]c(=O)c(CN(C)C(=O)c3ccncc3)cc2c1` the “activity, negative = less viability” value was inactive: 11%.
With `CCOC(=O)NC(=O)/C(C#N)=C/c1ccc(N(C)C)cc1` the “activity, negative = less viability” value was inactive: 23.4%.
In the case of `CN1CCC(=NNC(=O)c2cc(-c3ccc(Cl)cc3)n[nH]2)CC1`, the Potency is reported as inconclusive [cytotoxic, single point].
In the case of `Cc1cc(C(=O)CSc2cccc[n+]2[O-])c(C)n1-c1ccccc1`, the “activity, negative = less viability” value is reported as inactive: -6.9%.
For `CC(=O)N1c2ccc(S(=O)(=O)NCC3CCC(C(=O)NC4CCC(C)CC4)CC3)cc2CC1C` (stereo unspecified), the “activity, negative = less viability” value was inactive: -27.8%.
With `O=C(Nc1cnccn1)c1cccc(C(F)(F)F)c1` the “activity, negative = less viability” value was inactive: -3.03%.
In the case of `Cc1sc2ncnc(SCC(=O)Nc3ccc(S(=O)(=O)N4CCOCC4)cc3)c2c1C`, the “activity, negative = less viability” value is reported as inactive: -11%.
In the case of `COc1cccc(/C=N/NC(=O)CNC(=O)c2ccc3c(c2)OCCO3)c1O`, the Potency is reported as inconclusive [cytotoxic, partial curve].
With `Cc1ccc(CCC(=O)Nc2ncc(Cc3cccc(Cl)c3Cl)s2)o1` the Potency was active: 0.731 µM.
For `O=C(O)CC1COc2ccccc2N1S(=O)(=O)c1ccc(Br)cc1` (stereo unspecified), the “activity, negative = less viability” value was inactive: 5.15%.
For `Cc1ccc(C(=O)O/N=C2/CC3CCC2(C)[C@@]3(C)CBr)cc1` (stereo partly specified), the Potency was inconclusive [cytotoxic, partial curve].
With `Cc1c(C)n(CCc2ccccc2)c2ncnc(NCCCN(C)C)c12` the Potency was inconclusive [cytotoxic, single point].
In the case of `COc1ccc(-c2[nH]ncc2/C=C(/C#N)C(=O)NC2CCCCC2)cc1`, the Potency is reported as inconclusive [cytotoxic, single point].
With `C=C1C(=O)O[C@@H]2[C@H]1CC[C@H](C)[C@]1(O)CCC(=O)[C@@]21C` the Potency was inconclusive [cytotoxic, single point].
For `CC(=O)c1cccc(NC(=O)c2ccc([N+](=O)[O-])o2)c1`, the Potency was active: 14.6 µM.
For `C=CCn1cc(C(=O)OCC)c(=O)c2cc(F)c(F)cc21`, the “activity, negative = less viability” value was inactive: 3.94%.
For `CC(=O)N1CCc2c(sc(NC(=O)C3CC3)c2-c2nc3ccccc3s2)C1`, the Potency was inconclusive [cytotoxic, single point].
With `CNc1nc(N/N=C/c2cc3c(cc2[N+](=O)[O-])OCO3)nc(Nc2ccccc2)n1` the Potency was inconclusive [cytotoxic, single point].
